{"source": "the RNAGym collection of RNA variant scans (doi:10.7554/elife.90254)", "parents": {"B1": {"name": "OR4K15 (parent)", "chain": "GUUAACGGUCAUAGGCCAUGGAAACUAGGAGCACCAUUUCGCUGCCAGUGAAGAAAUGAACAAAGAAAAUCUGGGCCAGGCAGGCAUCAAAAGAAAUAGUCUUGCGCUCAACCAGAAAGUCUGUAAUCAUUUUAAGGGUA"}}, "note": "The source gives no read counts; variants with many changes may rest on few reads."}
{"variants_of": "B1", "test": "self-cleavage, relative activity (ratio to wild type); higher = more cleavage; in vitro, sequencing; the parent is a self-cleaving ribozyme"}
{"variant": "GUUAACGGUCAUAGGCCAUGGAAACUAGGAGCACCAUUUUGCUGCCAGUGAAGAGAUGAACAAAGAAAAUCUGGGCCAGGCAGGCAUCAAAAGAAAUAGUCUUGCGCUCAACCAGAAAGUCCGUAAGCAUUUUAAGGGUA", "self-cleavage": 1.2}
{"variant": "GUUAACGGUCAUAGGCCAUGGAAACUAGGAGCACCAUUCCGCAGCCAGUGAAGAAAUGAACAAAGAAAAUCUGGGCCAGGCAGGCAUCAAAAGGAAUAGUCUUGCGCUCAACCAGAAAGUCUGUAAUCAUUCUAAGGGUA", "self-cleavage": 1.16}
{"variant": "GUUAACGGUCAUAGGCCAUGGAGACUAGGAGCACCAUUUCGCUGCCAGUGAGGAAAUGAACAAAGAAAAUCUGGGCCAGGCUGGCAUCAAAAGAAAUAGUCUUGCGCUCAACCAGAAAGUCUGUAAUCAUUUUAAGGGUA", "self-cleavage": 0.09}
{"variant": "GUUAACGGACAUAGGCCAUGGAAACUAGGAGCACCAUUUCGCUGCCAGUGAAGAAAUGAACAAAGAAGAUCUGGGCCAGGCAGGCAUCAAAAGAAAUAGUCUUGCGCCCAACCAGAAAGUCUGUAAUCAUUUUAAGGGUA", "self-cleavage": 0.04}
{"variant": "GUUAACGGUCAUAGGCCAUGGAAACUAGGAGCACCAUAUCGCUGCCAGUGGAGAAAUGAACAAAGAAAAUCUGGGCCAGGCAGGCAUCAAAAGAAAUAGUAUUGCGCUCAACCAGAAAGUCUGUAAUAAUUUUAAGGGUA", "self-cleavage": 0.07}
{"variant": "GUUAGCGGUCAUAGGCCAUGGAAACCAGGAGCACCAUUUCGCUGCCAGUGAUGAAGUGAACAAAGAAAAUCUGGGCCAGGCAGGCAUCAAAAGAAAUAGUCUUGCGCUCAGCCAGAAAGUCUGCAAUCACUUUAAGGGUA", "self-cleavage": 0}
{"variant": "GUCAACGGCCAUAGGCCAUGGAAACUAGGAGCACCAUUUCGCUGCCAGUGAAGAAAUGAACAAAGAAAAUCAGGGCCAGGCAGGCAUCAAAAGAAAUAGUCUUGCGCCCAACCAGAAAGUCUGUAAUCAUUUUAAGGGUA", "self-cleavage": 0.05}
{"variant": "GUUAACGGUCAUAGGCCAUGGAAACUAGGAGCACCAUUUCGCUGCCAGUGAAGAAGAGAACAAAUAAAAUCUGGGCCAGGCAGGCAUCUAAAGAAAUAGUCUUGCGCUCAACCAGAAAGUCUGUAAUCAUUUUAAGGGUA", "self-cleavage": 1.07}
{"variant": "GUUAACGGUCAUAGGCCAUGGAAACUAGGAGCACCAUUUCGCUGCCAGUGAAGAAAUGAUCAAAGAAAAUCUGGGCCAGGCAGGCAUCAAAAGAAAUAGUCUUACGCUCAACCUGAAAGUCUGUAAUCAAUUUAAGGGUA", "self-cleavage": 0.01}
{"variant": "GUUAACGGUCAUAGGCCAUGGAAACUAGGAGCACCAUGUCGCUGCCAGUGAAGAAAUGAACAAAGGAAAUCUGGGCCAGGCAGGCAUCAAAAGAAAUAGUCUUGCGCUCAACCAGGAAGUCUGUAAUCAUUUUAAGGGUA", "self-cleavage": 1.21}
{"variant": "GUUAACGGUCAUAGGCCAUGGAAGCUAGGAGUACCAUUUCGCUGCCAGUGAAGAAAUGAACAAAGAAAAUCUGGGCCAGGCAGGCAUCAAAAGAAAUAGUCUUGCGCUCAACCAGAAAGUCUGUAAUCAUUCUAAGGGUA", "self-cleavage": 0.41}
{"variant": "GUUAACGGUCAUAGGCCAUGGAAACUAGGAGCACCAUUUCGCUGCCAGUGAAGAAAUGAACAAAGAAAAUCUGGGCCAGGCUGGCACCAAAAGAAAUAGUCUUGCGCUCAACCAGAAAGUCUGUAAUCGUUUUAGGGGUA", "self-cleavage": 0.06}
{"variant": "GUUAACGGUCAUAGGCCAUGGAAACUAGGAGCACCACUUCGCUGCCAGUGAGGAAAUGAACAAAGGAAAUCUGGGCCUGGCAGGCAUCAAAAGAAAUAGUCUUGCGCUCAACCAGAAAGUCUGUAAUCAUUUUAAGGGUA", "self-cleavage": 0.46}
{"variant": "GUUAACGGUUAUAGGCCAUGGAAACUAGGAGCACCAUUUCGCAGCCAGUGAAGAAAUGAACUAAGAAAAUCUGGGCCAGGCAGGCAUCAAAAGAAAUAGUCUUGCGCUCAACCAGAAAGUCUGUAAUCAUUUUAAGGGUA", "self-cleavage": 0.99}
{"variant": "GUUAACGGUCAUAGGCCAUGGAAACUAGGAGCACCUUUUCGCUGCCAGUGAAGAAAUGAACAAAGAAAGUCUGGACCAGGCAGGCAUCAAAAGAAAUAGUCUUGCGCUCAACCAGAAAGUCUGUAAUCAUUUUAAGGGUA", "self-cleavage": 0.09}
{"variant": "GUUAACGGUCAUAGGACAUGGAAACUAGGAGCACCCUUUCGCUGCCAGUGAAGAAAUGAACAAAGAAAAUCUGGGCCAGGCAGGCAUCAAGAGAAAUAGUCUUGCGCUCAACCAGAAAGUCUGUAAUCAUUUUAAGGGUA", "self-cleavage": 1.27}
{"variant": "GUUAACGGUCAUAGGCCUUGGAAACUAGGAGCACCAUUUCGCUGCCAGUGAAGAAAUGAACAAAGCAAAUCUGGGCCAGGCAGGCAUCAAAAGAAAUAGUCUUGCGCUCAACCAGAAAGUCUGUAACCAUUUUAAGGGUA", "self-cleavage": 1.78}
{"variant": "GUUAACGGUCAUAGGCCAUGGAAACUAGGAGCACCAUAUCGCUGCCAGUGAAGAAAUGAACAAAGAAAAUCUGGGCCAGGCCGGCAUCAAAAGAAAUAGUCUUGCGCUCAACCAGAAGGUCCGUAAUCAAUUUAAGGGUA", "self-cleavage": 0.06}
{"variant": "GUUAACGGUCAUAGGCCAUGGAAACUAGGAGCACCAUUUCGCUGCCAGUGAAGAAAUGAACAAAGAAAACCUGGGCCAGGCAGGCAUCAAAGGAAAUAGUCUUGCGCUCAACCGGAAAGUCUGUAAUCAUUUUAAGGGUA", "self-cleavage": 0.09}
{"variant": "GUUAACGGUCAUAGGCUAUGGAAACUAGGAGCACCAUUCCGCUGCCAGUGUAGAGAUGAACAAAGAAAAUCUGGGCCAGGCAGGCAUCAAAUGAAAUAGUCUUGCGCUCAACCAGAAAGUCUGUAAUCAUUUUAAGGGUA", "self-cleavage": 1.11}
{"variant": "GUUAACGGUCACAGGCCAUGGAACCUAGGAGCACCAUUUCGCUGCCGGUGAAGAGAUGAACAAAGAAAAUCUGGGCCAGGCAGGCAUCAAAAGAAAUAGUCUUGCGCUCAACCAAAAAAUCUGUAAUCAUUUUAAGGGUA", "self-cleavage": 0.07}
{"variant": "GUUAACGGUCAUAGGCCAUGGAAACUAGGAGCGCCAUUUCGCUGCCAGUGAAGAAAUGAACAAAGAAAAUCUGGGCCAGGCAGGCAUCAGAAGGAAUGGUCUUGCGCCCAACCAGAAAGUCUGUAAUCACUUUAAGGGUA", "self-cleavage": 0.01}
{"variant": "GUUAACGGUCAUAGGCCAUGGAAACUAGGGGCACCAUUUCGCUGCCAGUGAAGAAAUGAACAAAGAAAAUCUGGGCCAGGCAGGCAUCAAAAGAAAUAGUCUCGCGCUCAACCAGAAAGUCUGUAACCAUUUUAAGGGUA", "self-cleavage": 0.81}
{"variant": "GUUAACGGUCAUAGGCCAUGGAAACUAGGGGCACCAUUUCGCUGCCAGUGAAGAGACGAACAAAGAAAAACUGGGCCAGGCAGGCAUCAAAAGAAACAGUCUCGCGCCCAACCAGAAAGUCUGUAAUCAUUUUAAGGGUA", "self-cleavage": 0.03}
{"variant": "GUUAAUGGUCAUAGGCCGUGGAAACUAGGAGCACCAUUUCGCUGCCAGUGAAGAAGUGAACAAAGAAAAUCUGGGCCAGGCAGGCAUCAAAAGAAAUAGUCUUGCGCUCAACCAGAAAGUCUGUAAUCAUUCUAAGGGUA", "self-cleavage": 0.94}
{"variant": "GCUAACGGCCCUAGGCCAUGGAAACUAGGAGCACCAUUUCGCUGCCAGUGAAGAAAUGAACAAAGAAAAUCUGGGCCAGGCAGGCAUCAAAAGAAAUAGUCUUGCGCUCAACCAGAAAGUCUGUAAUCAUUUUAAGGGUA", "self-cleavage": 0.36}
{"variant": "GUUAACGGUCAUAGGCCAUGGAAGCUAGGGGCACCAUUUCGCUGCCAGUGAAGAAAUGAACGAAGAAAAUCUGGGCCAGGCAGGCAUCAAAAGAAAUAGUCUUGCGCUCAACCAGAAAGUCUGUAAUCAUUUUAAGGGUA", "self-cleavage": 1.42}
{"variant": "GUUAACGGUCAUAGGCCAUGGAAACUAGGAGCACCAUUUCGCUGCCAGUGAAGAAAUGAACAAAGAAAAUCUGGGCCAGGCAGGCAUCAAAAGAAAUAGUCUUGCGCUCAACCAGAGAGUCUGUAAUCGUUUUAAGAGUA", "self-cleavage": 1.04}
{"variant": "GUUAACGGUCAUAGGCCAUGGAAACUAGGAGCACCAUUUCGCUGCCAGCGAAGAAAUGAACAAAGAUAAUCUGGGCCAGGCAGGCAUCAAAAGAAAUAGUCUUGCGCUCAACCAGAAAGUCUGUGAUCAUUUUAAGGGUA", "self-cleavage": 0.74}
{"variant": "GUUAACGGUCAUAGGCCAUGGAAUCUAGGAGCGCCAUUUCGCUGCCAGUGAAGAAAUGAACAAAGAAAAUCUGGGCCAGGCAGGCAUCAAAAGAAAUAGUCUUGCGCUCAACCAGAAAGUCUAUAAUCAUUUUAAGGGUA", "self-cleavage": 0.96}
{"variant": "GUUAACGGUCAUAGGCCACGGAAACCAGGAGCACCAUUUCGCUGCCAGUGAAGAAAUGAACAAAGAAAAUCUGGGCCAGGCAGGCAUCAAAAGAAAUAGUCUUGCGCUCAACCAGAAAGCCUGUAAUCAUUUUAAGGGUA", "self-cleavage": 0.81}
{"variant": "GUUAACGGUCAUAGGCCGUGGAAACUAGGAGCACCACUUCACUGCCAGUGAAGAAAUGAACAAAGAAAAUCUGGGCCAGGCAGGCAUCAAAAGAAAUAGUCUCGCGCUCAACCAGAAAGUCUGUAAUCAUUUUGAGGGUA", "self-cleavage": 0.93}
{"variant": "GUUAACGGUCAUAGGCCAUGGAAACUAGGAGCACCGUUUCGCCGCCAGUGAAGAAAUGAAGAAAGAAAAUCUGGGCCAGGCAGGCAUCAAAAGAAAUAGUCUUGCGCUCAACCAGAAAGUCUGUAAUCAUUUUAAGGGUA", "self-cleavage": 1.43}
{"variant": "GUUAACGGUCAUAGGCCAUGGAAACUAGGAGCACCAUUUCGCUGCCAGUGUAGAAAUGUACAAAGAAAAUCUGGGCCAGGCAGGCAUCAAAAGUAAUAGUCUCGCGCUCAACCAGAAAGUCUGUAAUCAUUUUAAGGGUA", "self-cleavage": 1.31}
{"variant": "GUUAACGGUCAUAGGCCAUGGAAACUAGGAGCACCAUUUCGCUGCCAGUGAAGAAAUGAACAAAGAAAAUCUGGGCCCGGCAGGCAUCAAAGGAAAUAGUCUUGCACUCAACCAGAAAGUCUGUAAUCACUUUAAGGGUA", "self-cleavage": 0.01}
{"variant": "GUUAACGGUCAUAGGCCAUGGAAACUAGGAGCACCACUUCGCUGCCAGUGAAGGAGUGAACAGAGAAAAUCUGGGCCAGGCAGGCAUCAAAAGAAGUAGUCUUGCGCUCAACCAGAAAGUCUGUAAUCAUUUUAAGGGUA", "self-cleavage": 0.52}
{"variant": "GUUAACGGUCAUAGGCCAUGGAAACUAGGAGCACCAUUUCGCCGCCAGUGAAGAAAUGAACAAAGAAAAUCUGGGCCAGGCAGGCAACAAAAGAAAUAGUCUUGCGCUCAACCAGAAAGUCUGUAUUCAUUUUAAGGGUA", "self-cleavage": 0.94}
{"variant": "GUUAACGGUCAUAGGCCAUGGAAACUAGGAGCACCAUUUCGCUGCCAGUGAAGAAAUGAACAAAGAAAAUCUGGGCCAGGCAGGCAUCUAAAGAAAAGGUCUUGCGCUCAACCAGAAAGUCUGUAAUCAUUCUAAGGGUA", "self-cleavage": 2.94}
{"variant": "GUUAACGGUCAUAGACCAUGGAAACUAGGAGCACCAUUUCGCUGCCAGUGGAGCAAUGAACAAAGAAAAUCUGGGCCAGACAGGCAUCAAAAGAAAUAGUCUUGCGCCCAACCAGAAAGUCCGAAAUCAUUUUAAGGGUA", "self-cleavage": 0}
{"variant": "GUUAACGGUCAUAGGCCAUGGAAACUAGGAGCUCCAUUUCGCUGCCAGUGAGGAAGUGAACAAAGAAAAUCUGGGCCAGGCAGGCAUCAAAAGAAAUAGUCUUGCGCUCAACCAGAAAGUCUGUAAUCAUUUUAAGGGUA", "self-cleavage": 2.23}
{"variant": "GUUAACGGCCAUAGGCCAUGGAAACUAGGAGCACCAUUUCGCCGCCAGUGAAGAAAUGAACAAAGAAAAUCUGGGCCAGGCAGGAAUCUAAAGAAAUAGCCUUGCGCUCAACCAGAAAGUCUGUAAUCAUUUUAAGGGUA", "self-cleavage": 1.31}
